Reference: ChEMBL document CHEMBL1201862, “PubChem BioAssay data set” (2004)
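Values below derive from 48-hour exposures of cells grown in 96-well plates, with endpoints linearly interpolated between the two concentrations bracketing the appropriate inhibition level. At the GI50, growth is halved.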 Calls of active or inactive are those of the source. No stated cut-off is given here; in the data, active = GI50 up to about 1.1 µM and inactive = higher.

These compounds were tested on NCI-H322M (assay: NCI tumour cell line growth inhibition, 48 h).
In the case of `Oc1ccc2ccccc2c1/N=N/c1ccccc1`, the GI50 is reported as inactive: > 100 µM.
With `S=C(c1c[nH]c2ccccc12)N1CCOCC1` the GI50 was inactive: > 100 µM.
For `O=C(O)c1nnsc1-c1csnn1`, the GI50 was inactive: > 100 µM.
With `CC(=O)c1sc2c(c1OC(=O)c1ccccc1)c(=O)n(-c1ccccc1)c(=S)n2-c1ccccc1` the GI50 was inactive: 5.26 µM.
For `CC(=O)O[C@H]1[C@@H](OC2CCCC2(c2ccccc2)c2ccccc2)O[N+]([O-])=C[C@@H]1c1ccccc1` (some centres not stated), the GI50 was inactive: 15.1 µM.
In the case of `COC(=O)OCC1OC(N2C(=O)NC(=O)C(I)C2N=[N+]=[N-])CC1OC(=O)OC` (configuration not stated), the GI50 is reported as inactive: > 100 µM.
With `CN1CCN(c2n[nH]c(=O)c3c2nnn3C2CCCCC2)CC1` the GI50 was inactive: > 100 µM.
For `CCOC(=O)C1CCC(=O)N1C(=O)c1cccc(Cl)c1` (configuration not stated), the GI50 was inactive: > 100 µM.
In the case of `COc1cc(/C=C(\C#N)C(=O)c2ccccc2)ccc1O`, the GI50 is reported as inactive: > 100 µM.
With `CC(C)(C)OC(=O)NCCC1CN(C(=O)c2ccccc2)c2ccccc21` (configuration not stated) the GI50 was inactive: 79.8 µM.
For `COC(=O)C1CCOC(C)N1C(=O)OC(C)(C)C` (configuration not stated), the GI50 was inactive: > 100 µM.
`N#CCCN(CCC#N)c1ccc(/C=C2\N=C(c3ccccc3)N(NC(N)=S)C2=O)cc1` was tested, and the GI50 was inactive: > 100 µM.
In the case of `Cc1ccc(NC(=O)C(=O)CC(=O)c2ccccc2)cc1C`, the GI50 is reported as inactive: > 100 µM.
In the case of `O=C1Cc2c([nH]c3ccccc23)C2(CC3CCCCN13)OCCO2` (configuration not stated), the GI50 is reported as inactive: > 100 µM.
`Cc1cc2c(cc1-c1cc3c(cc1C)C(C(C)C)=C(O)C(=O)/C3=C\Nc1c3ccccc3nc3ccccc13)/C(=C/Nc1c3ccccc3nc3ccccc13)C(=O)C(O)=C2C(C)C` was tested, and the GI50 was inactive: 4.23 µM.
In the case of `O=C(NC(=O)c1cn(CCN2CCN(C(=O)NCCCCCCNC(=O)N3CCN(CCn4cc(C(=O)NC(=O)OCc5ccccc5)c(=O)[nH]c4=O)CC3)CC2)c(=O)[nH]c1=O)OCc1ccccc1`, the GI50 is reported as inactive: > 100 µM.
In the case of `CCOc1ccc2nc3nc(O)nc(C)c3c(NCCCN(CC)CC)c2c1`, the GI50 is reported as inactive: > 100 µM.
`CC(=O)Nc1ccc(NCC(=O)Nn2cnc3ccc(S(=O)(=O)Nc4ccc(NC(C)=O)cc4)cc3c2=O)cc1` was tested, and the GI50 was inactive: > 100 µM.
For `CC(C)CC(=O)NS(=O)(=O)c1ccccc1`, the GI50 was inactive: > 100 µM.
`COC(=O)[C@@H]1N2C(=S)N(c3ccccc3)C(=O)[C@H]2SC1(C)C` was tested, and the GI50 was inactive: > 100 µM.
In the case of `Cc1c(C2Cc3ccccc3N2)c2ccccc2n1C` (configuration not stated), the GI50 is reported as inactive: > 100 µM.
In the case of `CCCCCCCCCCCCCCCCSS(C)(=O)=O`, the GI50 is reported as inactive: > 100 µM.
For `C=C1C(=O)C2=C[C@H]1C[C@H](O)C(=O)[C@]1(C)CCCC(C)(C)[C@H]1C[C@H]2O`, the GI50 was inactive: 16.2 µM.
For `CCCCc1nc(C)oc1C(C)C`, the GI50 was inactive: > 100 µM.
For `OCc1nnn2c1CCC2`, the GI50 was inactive: > 100 µM.
In the case of `COc1cc(/C=C2\N=C(C)N(n3c(-c4ccccc4)nc4ccccc4c3=O)C2=O)cc(OC)c1OC`, the GI50 is reported as inactive: > 100 µM.
In the case of `COc1ccc([C@@H]2CC(=O)N2)cc1`, the GI50 is reported as inactive: > 100 µM.
`O=C(/C=C/c1ccccc1)CCC1C(=O)NC(=S)NC1=O` was tested, and the GI50 was inactive: > 100 µM.
With `COc1cc2c(cc1OC)C(Cl)C(c1ccc(Cl)cc1)=C2Cl` (configuration not stated) the GI50 was inactive: 18.4 µM.
With `CC1CC[C@@]2(OC1)OC1C[C@H]3[C@@H]4CC[C@H]5CC(OC6OC(CO)C(O)C(OC7OC(CO)C(OC8OC(CO)C(O)C(OC9OC(CO)C(O)C(O)C9O)C8OC8OC(CO)C(O)C(O)C8O)C(O)C7O)C6O)[C@H](O)CC5(C)[C@H]4CCC3(C)C1[C@@H]2C` (some centres not stated) the GI50 was inactive: 2.27 µM.
For `CCOC(=O)NC(=O)c1cn(-c2ccc(CCOC(=O)NCCCCCCNC(=O)OCCc3ccc(-n4c(=O)[nH]cc(C(=O)NC(=O)OCC)c4=O)cc3)cc2)c(=O)[nH]c1=O`, the GI50 was inactive: > 100 µM.
`Cc1ccc(S(=O)(=O)N/N=C2\C(=O)C3CC2C(Cl)C3Cl)cc1` (configuration not stated) was tested, and the GI50 was inactive: > 100 µM.
With `CCN(CC)C1=Nc2ccccc2-n2c(C)cnc2C1` the GI50 was inactive: > 100 µM.
`O=c1[nH]c(-c2ccccc2)nc2ccc(Cl)cc12` was tested, and the GI50 was inactive: 95.9 µM.
With `Cc1ccc(/N=N/NCCCCN)cc1` the GI50 was inactive: > 100 µM.
For `CCOC(=O)C(SCCO)C(C(=O)OCC)n1ccc(N)nc1=O` (configuration not stated), the GI50 was inactive: > 100 µM.
In the case of `NC1CC(Cl)c2c(Cl)sc(Cl)c21` (configuration not stated), the GI50 is reported as inactive: > 100 µM.
With `CC(C(O)Cc1ccccc1)N(C)/N=N/c1ccc([N+](=O)[O-])cc1` (configuration not stated) the GI50 was inactive: 27.7 µM.
With `CCOC(=O)C(=O)Nc1c(C)cccc1C(C)C` the GI50 was inactive: > 100 µM.
In the case of `O=S1(=O)N2CN3CN(C2)CN1C3`, the GI50 is reported as inactive: 142 µM.
With `O=C(Oc1c(I)ccccc1=O)c1ccc([N+](=O)[O-])cc1` the GI50 was inactive: 55.6 µM.
In the case of `C=CCOC(=O)C[C@H](NC(=O)[C@H](Cc1ccc(O)cc1)NCC(F)(F)F)C(=O)OCC=C`, the GI50 is reported as inactive: 70.5 µM.
For `C=C(C)[C@H]1[C@@H]2OC(=O)[C@H]1[C@]1(O)C[C@H]3OC34C(=O)O[C@H]2[C@@]41C.CC(C)(O)[C@H]1[C@@H]2OC(=O)[C@H]1[C@]1(O)C[C@H]3OC34C(=O)O[C@H]2[C@@]41C` (some centres not stated), the GI50 was inactive: > 100 µM.
For `COC(=O)c1ccccc1C1CN=NC12Cc1cc(C)c(C)cc1C2=O` (configuration not stated), the GI50 was inactive: 74 µM.
In the case of `CCN1CCC(O)(c2ccc(Oc3ccc(F)cc3)cc2)C(C(=O)c2ccc(Oc3ccc(F)cc3)cc2)C1` (configuration not stated), the GI50 is reported as inactive: 16.1 µM.
In the case of `O=C(CNCc1ccccc1)Oc1c(Cl)c(Cl)c(Cl)c(Cl)c1Cl`, the GI50 is reported as inactive: 26.7 µM.
`Cc1ccc(CNc2ccc(Br)cc2)cc1` was tested, and the GI50 was inactive: 52.1 µM.
`N#C/C(=C\c1cc(Cl)cc(Cl)c1)c1ccccn1` was tested, and the GI50 was inactive: 54.1 µM.
In the case of `CN1CCN(CCCNN)CC1`, the GI50 is reported as inactive: > 100 µM.
With `COc1ccc2nc3cc([N+](=O)[O-])ccc3c(NNc3ccccc3)c2c1` the GI50 was inactive: 41.8 µM.
With `CSc1sc(=S)sc1C(=O)N(C)c1ccccc1` the GI50 was inactive: > 100 µM.
In the case of `NCCNCCNCc1c2ccccc2c(CNCCNCCN)c2ccccc12`, the GI50 is reported as inactive: 22.3 µM.
For `COc1cc2c(c(OC)c1OC)-c1ccc(SC)c(=O)cc1C(CC(=O)Oc1ccc(F)cc1)C2` (configuration not stated), the GI50 was inactive: 2.31 µM.
For `CC1=CC[C@](C)(O)[C@@]2(C)CC[C@H]3C(=C(C)C)C(=O)C[C@]3(C)C[C@H]12`, the GI50 was inactive: > 50 µM.
With `C#CCn1c(=O)ccn(/C(=C\C(=O)OCC)C(=O)OCC)c1=O` the GI50 was inactive: 19 µM.
For `CCc1cc(CCC(=O)Nc2c(C)cccc2C)n[nH]1`, the GI50 was inactive: > 100 µM.
`COC(=O)/C=C(\C(=O)OC)C1C(=O)Oc2c(C)c(=O)c3ccccc3n21` (configuration not stated) was tested, and the GI50 was inactive: > 100 µM.
In the case of `COCCCNC(=O)C1C(=O)N(CCCOC)C(=O)/C1=N\N` (configuration not stated), the GI50 is reported as inactive: > 100 µM.
With `O=c1c2c(sc3ccccc13)NCN(CCc1ccccc1)C2` the GI50 was inactive: 45 µM.
In the case of `CSc1c(C(N)=S)c(N)nn1-c1ccccc1`, the GI50 is reported as inactive: > 100 µM.
For `O=C1NC2CCCCCC2C12CCCCC2` (configuration not stated), the GI50 was inactive: > 100 µM.
For `NC(CSC1c2ccccc2-c2ccccc21)C(=O)O` (configuration not stated), the GI50 was inactive: > 100 µM.
For `O=C(c1ccccc1)C1C(C(=O)c2ccccc2)N1Cc1ccccc1` (configuration not stated), the GI50 was inactive: 41.6 µM.
For `CCOC(=O)OC1(c2ccccc2)CCN(C)CC1`, the GI50 was inactive: > 100 µM.
With `O=C(Nc1c(C(F)(F)F)cc(-c2ccccc2)[nH]c1=O)N1CCOCC1` the GI50 was inactive: > 100 µM.
In the case of `O=c1cc(N2CCOCC2)[nH]c(=O)n1-c1cccc(C(F)(F)F)c1`, the GI50 is reported as inactive: > 100 µM.
`CN1CCc2c1nc(-c1ccc(Cl)cc1)c1c2N(C)CC1` was tested, and the GI50 was inactive: 15.7 µM.
For `COc1cccc(N2C(=O)/C(=C/c3ccc(N(CCC#N)CCC#N)cc3)N=C2c2cc([N+](=O)[O-])ccc2Cl)c1`, the GI50 was inactive: 51.5 µM.
With `COC(=O)c1ccccc1C1CN=NC12Cc1ccc3ccccc3c1C2=O` (configuration not stated) the GI50 was inactive: 67.6 µM.
In the case of `[N-]=[N+]=NC1=NNC2(C(=O)N1)c1ccccc1-c1ccccc12`, the GI50 is reported as inactive: > 100 µM.
With `O=c1[nH]c(=O)n(C2OC(CO)C(O)C2O)cc1OCCc1ccccc1` (configuration not stated) the GI50 was inactive: > 100 µM.
For `CCCC[C@@H]1CCN2C[C@@H](O)[C@@H](O)[C@H]2[C@@H]1O`, the GI50 was inactive: > 100 µM.
`O=C(c1ccc(Cl)cc1)C(O)c1ccc(Cl)cc1` (configuration not stated) was tested, and the GI50 was inactive: 43.1 µM.
In the case of `Cc1nc(Cl)c(Cl)c(Cl)n1`, the GI50 is reported as active: 0.918 µM.
`COC(=O)c1c/c(=N\NC(=O)CC(=O)Nc2ccccc2Cl)c2ccccc2o1` was tested, and the GI50 was inactive: > 100 µM.
`CC1CC(Br)C(=O)O1` (configuration not stated) was tested, and the GI50 was inactive: > 100 µM.
For `O=Cc1ccc(OCc2cccc(COc3ccc(/C=N\Nc4ccc([N+](=O)[O-])cc4[N+](=O)[O-])cc3)n2)cc1`, the GI50 was inactive: > 100 µM.
`CC1CC(c2ccccc2)=Nc2ccccc2S1(=O)=O` (configuration not stated) was tested, and the GI50 was inactive: 11.2 µM.
For `N#CCCN(CCC#N)c1ccc(/C=N\c2nc(-c3ccccc3)cs2)cc1`, the GI50 was inactive: > 100 µM.
For `Cc1nc(OCc2ccccc2)c2ncn(CCO)c2n1`, the GI50 was inactive: > 100 µM.
In the case of `CCC(=O)Oc1ccc2c(c1)c(=O)c1c(NCCCN(C)C)ccc3nnn2c31`, the GI50 is reported as inactive: 1.33 µM.
With `COc1ccc(S(=O)(=O)O)cc1-n1nc(C(=O)Nc2ccccc2)n[n+]1-c1cc(S(=O)(=O)[O-])ccc1OC` the GI50 was inactive: > 100 µM.
With `OC1C2[C@@H](O)CCCN2C[C@@H](O)[C@H]1O` (some centres not stated) the GI50 was inactive: > 100 µM.
`N#[N+]c1cc2c(cc1Br)-c1ccccc1C2` was tested, and the GI50 was inactive: 79.3 µM.
In the case of `CC(C)c1ccc(C(c2ccc(OCC(=O)O)cc2)c2ccc(C(C)C)cc(=O)c2O)c(O)c(=O)c1`, the GI50 is reported as inactive: 10.7 µM.
In the case of `Cc1nc(-c2nc(C)c(C(=O)NNC(=O)C[n+]3ccccc3)s2)sc1C(=O)NNC(=O)C[n+]1ccccc1`, the GI50 is reported as inactive: > 100 µM.
For `C=CC(=O)N1C/C(=C\c2ccc(F)cc2)C(=O)/C(=C/c2ccc(F)cc2)C1`, the GI50 was inactive: 1.15 µM.
In the case of `COC(=O)[C@@H]1c2cc3c(c(O)c2[C@@H](OC)C[C@@]1(C)O)C(=O)c1c(O)cc2c(c1C3=O)OC1O[C@@]2(C)[C@H](O)[C@@H](N(C)C)[C@@H]1O`, the GI50 is reported as active: 0.379 µM.
For `CC(C)CC(N)C(=O)O` (configuration not stated), the GI50 was inactive: > 100 µM.
With `CN(C)Cc1cc(C(=O)/C=C/c2ccc(Cl)c(Cl)c2)cc(CN(C)C)c1O` the GI50 was inactive: 3.09 µM.
With `COc1cc2c[n+](C)c3c(c2cc1OC)Cc1cc2c(cc1-3)OCO2` the GI50 was inactive: > 100 µM.
In the case of `CC(C)(C)c1ccc(-c2nc3ccc([N+](=O)[O-])cc3c(=O)o2)cc1`, the GI50 is reported as inactive: 29.9 µM.
